# Data reported in publication PMC9911399, “Two distinct binding modes provide the RNA-binding protein RbFox with extraordinary sequence specificity”.
# Substitutions are numbered along the chain they refer to; changes in the protein carry UniProt numbers. Some of the results follow.
# T1: RBFOX1 RRM RbFoxmut (Fox-RRM*) (Homo sapiens, UniProt Q9NWB1 109-208, R118D;E147R;N151S;E152T)
# T1 sequence: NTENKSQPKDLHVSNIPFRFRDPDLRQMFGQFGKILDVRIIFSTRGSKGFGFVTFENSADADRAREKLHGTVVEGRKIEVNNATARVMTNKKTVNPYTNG
# B1: AUCGGCU (DNA:RNA)
# RNA: GGGAGACCGGAAUUCAGAUUGUCCAUCGGCUUUAAAUCCCGUCGUAGCCACCA
# DNA 1: CAATCTGAATTCCGGTCTCCC
# DNA 2: TGGTGGCTACGACGGGATT
# B2: UUCUGAC (DNA:RNA)
# RNA: B1 RNA with A25U, G28U, C30A, U31C
# DNA 1: CAATCTGAATTCCGGTCTCCC
# DNA 2: TGGTGGCTACGACGGGATT
# B3: CACCUCC (DNA:RNA)
# RNA: B1 RNA with A25C, U26A, G28C, G29U, U31C
# DNA 1: CAATCTGAATTCCGGTCTCCC
# DNA 2: TGGTGGCTACGACGGGATT
# B4: CUCGCGG (DNA:RNA)
# RNA: B1 RNA with A25C, G29C, C30G, U31G
# DNA 1: CAATCTGAATTCCGGTCTCCC
# DNA 2: TGGTGGCTACGACGGGATT
# B5: CUCGAUA (DNA:RNA)
# RNA: B1 RNA with A25C, G29A, C30U, U31A
# DNA 1: CAATCTGAATTCCGGTCTCCC
# DNA 2: TGGTGGCTACGACGGGATT
# B6: AACGUAU (DNA:RNA)
# RNA: B1 RNA with U26A, G29U, C30A
# DNA 1: CAATCTGAATTCCGGTCTCCC
# DNA 2: TGGTGGCTACGACGGGATT
# B7: AGGUUAG (DNA:RNA)
# RNA: B1 RNA with U26G, C27G, G28U, G29U, C30A, U31G
# DNA 1: CAATCTGAATTCCGGTCTCCC
# DNA 2: TGGTGGCTACGACGGGATT
# B8: AGUUCCC (DNA:RNA)
# RNA: B1 RNA with U26G, C27U, G28U, G29C, U31C
# DNA 1: CAATCTGAATTCCGGTCTCCC
# DNA 2: TGGTGGCTACGACGGGATT
# B9: GCGUAGC (DNA:RNA)
# RNA: GGGAGACCGGAAUUCAGAUUGUCCGCGUAGCUUAAAUCCCGUCGUAGCCACCA
# DNA 1: CAATCTGAATTCCGGTCTCCC
# DNA 2: TGGTGGCTACGACGGGATT
# B10: GUUUCAU (DNA:RNA)
# RNA: B1 RNA with A25G, C27U, G28U, G29C, C30A
# DNA 1: CAATCTGAATTCCGGTCTCCC
# DNA 2: TGGTGGCTACGACGGGATT
# B11: AUUGUGU (DNA:RNA)
# RNA: B1 RNA with C27U, G29U, C30G
# DNA 1: CAATCTGAATTCCGGTCTCCC
# DNA 2: TGGTGGCTACGACGGGATT
# B12: UUCUGGC (DNA:RNA)
# RNA: B1 RNA with A25U, G28U, C30G, U31C
# DNA 1: CAATCTGAATTCCGGTCTCCC
# DNA 2: TGGTGGCTACGACGGGATT
# B13: ACCCGCG (DNA:RNA)
# RNA: B1 RNA with U26C, G28C, U31G
# DNA 1: CAATCTGAATTCCGGTCTCCC
# DNA 2: TGGTGGCTACGACGGGATT
# B14: GGUUCUC (DNA:RNA)
# RNA: B9 RNA with C26G, G27U, A29C, G30U
# DNA 1: CAATCTGAATTCCGGTCTCCC
# DNA 2: TGGTGGCTACGACGGGATT
# B15: AGCAAAU (DNA:RNA)
# RNA: B1 RNA with U26G, G28A, G29A, C30A
# DNA 1: CAATCTGAATTCCGGTCTCCC
# DNA 2: TGGTGGCTACGACGGGATT
# B16: GAAACUG (DNA:RNA)
# RNA: B9 RNA with C26A, G27A, U28A, A29C, G30U, C31G
# DNA 1: CAATCTGAATTCCGGTCTCCC
# DNA 2: TGGTGGCTACGACGGGATT
# B17: CACCCAA (DNA:RNA)
# RNA: B1 RNA with A25C, U26A, G28C, G29C, C30A, U31A
# DNA 1: CAATCTGAATTCCGGTCTCCC
# DNA 2: TGGTGGCTACGACGGGATT
# B18: UAUGCGA (DNA:RNA)
# RNA: B1 RNA with A25U, U26A, C27U, G29C, C30G, U31A
# DNA 1: CAATCTGAATTCCGGTCTCCC
# DNA 2: TGGTGGCTACGACGGGATT
# B19: CUCUGUC (DNA:RNA)
# RNA: B1 RNA with A25C, G28U, C30U, U31C
# DNA 1: CAATCTGAATTCCGGTCTCCC
# DNA 2: TGGTGGCTACGACGGGATT
# B20: UACAGGG (DNA:RNA)
# RNA: B1 RNA with A25U, U26A, G28A, C30G, U31G
# DNA 1: CAATCTGAATTCCGGTCTCCC
# DNA 2: TGGTGGCTACGACGGGATT
# B21: UUUAAUG (DNA:RNA)
# RNA: B1 RNA with A25U, C27U, G28A, G29A, C30U, U31G
# DNA 1: CAATCTGAATTCCGGTCTCCC
# DNA 2: TGGTGGCTACGACGGGATT
# B22: UAAGAAC (DNA:RNA)
# RNA: B9 RNA with G25U, C26A, G27A, U28G, G30A
# DNA 1: CAATCTGAATTCCGGTCTCCC
# DNA 2: TGGTGGCTACGACGGGATT
# B23: GCAUGCU (DNA:RNA)
# RNA: B1 RNA with A25G, U26C, C27A, G28U
# DNA 1: CAATCTGAATTCCGGTCTCCC
# DNA 2: TGGTGGCTACGACGGGATT
# B24: CUUAUGC (DNA:RNA)
# RNA: B9 RNA with G25C, C26U, G27U, U28A, A29U
# DNA 1: CAATCTGAATTCCGGTCTCCC
# DNA 2: TGGTGGCTACGACGGGATT
# B25: GACGACG (DNA:RNA)
# RNA: B1 RNA with A25G, U26A, G29A, U31G
# DNA 1: CAATCTGAATTCCGGTCTCCC
# DNA 2: TGGTGGCTACGACGGGATT
# B26: GCGUAUG (DNA:RNA)
# RNA: B9 RNA with G30U, C31G
# DNA 1: CAATCTGAATTCCGGTCTCCC
# DNA 2: TGGTGGCTACGACGGGATT
# B27: UACUCCG (DNA:RNA)
# RNA: B1 RNA with A25U, U26A, G28U, G29C, U31G
# DNA 1: CAATCTGAATTCCGGTCTCCC
# DNA 2: TGGTGGCTACGACGGGATT
# B28: CAUCCGC (DNA:RNA)
# RNA: B9 RNA with G25C, C26A, G27U, U28C, A29C
# DNA 1: CAATCTGAATTCCGGTCTCCC
# DNA 2: TGGTGGCTACGACGGGATT
# B29: CUAAACU (DNA:RNA)
# RNA: B1 RNA with A25C, C27A, G28A, G29A
# DNA 1: CAATCTGAATTCCGGTCTCCC
# DNA 2: TGGTGGCTACGACGGGATT
# B30: GAGAAAA (DNA:RNA)
# RNA: B9 RNA with C26A, U28A, G30A, C31A
# DNA 1: CAATCTGAATTCCGGTCTCCC
# DNA 2: TGGTGGCTACGACGGGATT
# B31: AACGCUA (DNA:RNA)
# RNA: B1 RNA with U26A, G29C, C30U, U31A
# DNA 1: CAATCTGAATTCCGGTCTCCC
# DNA 2: TGGTGGCTACGACGGGATT
# Target: T1, RBFOX1 RRM RbFoxmut (Fox-RRM*)
# Assay: EMSA; HiTS-Eq, 1 nM pool, 10 min; buffer printed only for the single-RNA assays: 10 mM Tris pH 7.5, 150 mM NaCl, 3.4 mM EDTA, 0.001% NP-40, 30 C
# Settings: tags: His6 N-terminal (pET28a); label: 5' 32P
# In short: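 These values rest on relative association constants, computed from read-count changes of each RNA species versus the control reaction and normalised to the cognate motif. Reads came from free RNA recovered by 8% native PAGE after purified RbFox RRM (wild type or mutant) at increasing concentrations was equilibrated for 10 min in 50 µL with 1 nM of a 5′-radiolabelled pool with 7 randomized nucleotides and DNA-annealed flanks.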
row,Binder,binding signal
1,B1,0.104 KA relative to UGCAUGU
2,B2,0.094 KA relative to UGCAUGU
3,B3,0.0474 KA relative to UGCAUGU
4,B4,0.0781 KA relative to UGCAUGU
5,B5,0.131 KA relative to UGCAUGU
6,B6,0.106 KA relative to UGCAUGU
7,B7,0.155 KA relative to UGCAUGU
8,B8,0.0549 KA relative to UGCAUGU
9,B9,0.0936 KA relative to UGCAUGU
10,B10,0.132 KA relative to UGCAUGU
11,B11,0.189 KA relative to UGCAUGU
12,B12,0.127 KA relative to UGCAUGU
13,B13,0.0757 KA relative to UGCAUGU
14,B14,0.0759 KA relative to UGCAUGU
15,B15,0.0838 KA relative to UGCAUGU
16,B16,0.0718 KA relative to UGCAUGU

row,Binder,binding signal
1,B17,0.0838 KA relative to UGCAUGU
2,B18,0.0552 KA relative to UGCAUGU
3,B19,0.261 KA relative to UGCAUGU
4,B20,0.0761 KA relative to UGCAUGU
5,B21,0.125 KA relative to UGCAUGU
6,B22,0.0462 KA relative to UGCAUGU
7,B23,0.736 KA relative to UGCAUGU
8,B24,0.122 KA relative to UGCAUGU
9,B25,0.0915 KA relative to UGCAUGU
10,B26,0.876 KA relative to UGCAUGU
11,B27,0.0523 KA relative to UGCAUGU
12,B28,0.0873 KA relative to UGCAUGU
13,B29,0.0676 KA relative to UGCAUGU
14,B30,0.0838 KA relative to UGCAUGU
15,B31,0.105 KA relative to UGCAUGU
